The list shows a part of the results. Cleavage of a single-stranded DNA pool by Rep nickase domains was read by sequencing (3 µM enzyme, 1 h, 37 °C); shown is the middle of each 90-letter strand. Numbers give uncut DNA relative to the enzyme-free pool, as log2; the lower, the more was cut; hits are not called. Counts are relative to all reads; uncut strands gain when others are lost, and binding without cutting may add a little.
Columns and labels:
Assay in all cases: uncleaved DNA left, log2 of reads against the no-enzyme library (log2 ratio); higher = less cleavage (more negative = more Rep cleavage of the k-mer); sequences stand for … in CTCGTCCG…ACCGGAGA
[1] = test system: T1, Rep nickase domain of Muscovy duck circovirus
T1 sequence (residues 1-111, tag not shown): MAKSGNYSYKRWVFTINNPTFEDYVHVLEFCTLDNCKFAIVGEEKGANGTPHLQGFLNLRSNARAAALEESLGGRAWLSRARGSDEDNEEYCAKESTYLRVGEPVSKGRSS
Procedure: (§1)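 A pool of 90-nt single-stranded DNAs with seven random bases just before the constant AC of the nick site (name = the seven bases) was cut by 3 µM recombinant His6-SUMO-tagged Rep nickase domain (300 nM DNA, 50 mM HEPES pH 8.0, 50 mM NaCl, 1 mM MnCl2, 1 h, 37 °C, three replicates). Uncut DNA was amplified and sequenced.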

[2] = test system: T2, Rep nickase domain of banana bunchy top virus
T2 sequence (residues 1-94, tag not shown): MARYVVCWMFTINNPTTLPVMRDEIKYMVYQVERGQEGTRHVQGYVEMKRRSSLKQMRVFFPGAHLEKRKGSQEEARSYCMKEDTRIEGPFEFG
Procedure: as §1

[3] = test system: T3, Rep nickase domain of cabbage leaf curl virus
T3 sequence (residues 1-116, tag not shown): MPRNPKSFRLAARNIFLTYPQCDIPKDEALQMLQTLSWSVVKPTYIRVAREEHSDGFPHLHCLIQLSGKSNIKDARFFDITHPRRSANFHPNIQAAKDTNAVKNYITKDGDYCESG
Procedure: as §1

[4] = test system: T4, Rep nickase domain of chickpea chlorotic dwarf virus
T4 sequence (residues 1-124, tag not shown): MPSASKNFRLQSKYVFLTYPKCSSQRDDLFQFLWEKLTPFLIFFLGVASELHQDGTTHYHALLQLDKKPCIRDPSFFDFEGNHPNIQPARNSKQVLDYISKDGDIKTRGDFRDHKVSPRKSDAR
Procedure: as §1

[5] = test system: T5, Rep nickase domain of faba bean necrotic yellows virus
T5 sequence (residues 1-98, tag not shown): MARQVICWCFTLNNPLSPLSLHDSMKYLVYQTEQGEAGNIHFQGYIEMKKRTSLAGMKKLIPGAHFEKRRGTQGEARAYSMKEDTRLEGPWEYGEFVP
Procedure: as §1

[6] = test system: T6, Rep nickase domain of maize striate mosaic virus
T6 sequence (residues 1-117, tag not shown): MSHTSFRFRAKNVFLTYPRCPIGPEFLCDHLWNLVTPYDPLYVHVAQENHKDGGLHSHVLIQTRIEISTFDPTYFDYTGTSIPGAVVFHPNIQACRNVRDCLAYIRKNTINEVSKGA
Procedure: as §1

[7] = test system: T7, Rep nickase domain of porcine circovirus 2
T7 sequence (residues 2-116, tag not shown): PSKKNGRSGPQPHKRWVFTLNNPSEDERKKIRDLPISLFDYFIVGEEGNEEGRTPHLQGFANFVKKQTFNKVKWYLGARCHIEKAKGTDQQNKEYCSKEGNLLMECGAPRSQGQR
Procedure: as §1

[8] = test system: T8, Rep nickase domain of tomato golden mosaic virus
T8 sequence (residues 1-124, tag not shown): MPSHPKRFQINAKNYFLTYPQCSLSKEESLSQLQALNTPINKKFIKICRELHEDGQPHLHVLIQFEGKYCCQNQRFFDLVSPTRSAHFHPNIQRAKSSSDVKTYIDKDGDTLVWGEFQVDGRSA
Procedure: as §1

[9] = test system: T9, Rep nickase domain of tomato yellow leaf curl virus
T9 sequence (residues 1-136, tag not shown): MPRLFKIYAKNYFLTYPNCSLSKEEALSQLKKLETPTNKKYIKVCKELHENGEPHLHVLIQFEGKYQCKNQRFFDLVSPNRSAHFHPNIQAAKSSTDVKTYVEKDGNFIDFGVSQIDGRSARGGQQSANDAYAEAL
Procedure: as §1

[10] = test system: T10, Rep nickase domain of wheat dwarf virus
T10 sequence (residues 1-137, tag not shown): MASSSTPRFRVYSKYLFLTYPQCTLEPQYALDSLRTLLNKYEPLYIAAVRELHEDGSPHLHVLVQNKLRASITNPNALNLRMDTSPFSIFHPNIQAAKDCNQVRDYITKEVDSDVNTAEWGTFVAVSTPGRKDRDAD
Procedure: as §1

Sequence	uncleaved DNA left (log2) [1]	uncleaved DNA left (log2) [2]	uncleaved DNA left (log2) [3]	uncleaved DNA left (log2) [4]	uncleaved DNA left (log2) [5]	uncleaved DNA left (log2) [6]	uncleaved DNA left (log2) [7]	uncleaved DNA left (log2) [8]	uncleaved DNA left (log2) [9]	uncleaved DNA left (log2) [10]
AATGGGT	0.107	0.141	0.404	1.67	0.159	1.81	0.363	0.245	-0.0558	0.15
ACAAAGG	0.032	0.0359	-0.535	-0.271	0.0335	-0.921	0.194	0.0276	0.0876	0.0584
GCCTTTT	-1.57	0.202	0.22	-0.981	0.157	0.347	-2.61	0.0555	-0.000756	-0.0306
CCTAGGC	0.0178	-0.13	-0.014	0.273	-0.0771	-0.758	-0.0301	-2.15e-05	-0.194	-0.13
GAAACAT	0.064	0.137	0.87	1.91	0.031	2.19	0.237	0.0626	0.1	0.238
TTATTAT	-2.04	-0.107	-1.77	-2.09	0.0119	-0.439	-1.68	-0.352	0.107	-0.384
TCTTGTT	-3.02	-0.945	-0.85	-2.43	0.0141	-1.04	-3.1	-0.154	0.0439	-0.665
TCGTTGT	-0.212	-0.256	-0.25	-0.67	-0.189	-0.953	-2.46	-0.134	-0.0766	-0.196
AGTTAAT	-3.02	-1.57	-0.344	-0.793	-0.244	-0.086	-3.97	-0.104	-0.0304	-0.238
TGGAGGA	0.146	-0.00329	0.297	0.654	-0.0574	0.244	0.163	0.0113	0.00197	-0.0613
GTGTCTC	-0.0138	0.0552	0.304	0.873	-0.0262	1.86	0.121	0.0691	0.0048	0.0618
CTTTTAA	0.0381	-0.0374	-0.152	-0.473	-0.049	-0.7	-0.183	0.0608	0.0573	0.183
CCGCCTG	-0.0345	0.0516	-0.108	0.407	0.0566	0.898	-0.00137	-0.0014	-0.0385	-0.00238
TGGGCGC	0.121	0.12	0.289	0.422	0.177	0.327	0.289	0.0759	0.0808	0.0417
AATCAAA	-0.0077	0.102	0.0122	-0.0738	0.0164	-0.524	-0.0179	0.0922	0.0707	0.0624

From the supplement of paper PMC7826260
